The results in this text go back to patent US9907800B2, “Kinase inhibitors and method of treating cancer” (University Health Network, priority 2010, dated 2018).

The subject of test [1] is HUV-EC-C cells. Nature of the test: In vitro angiogenesis assay (tube formation). The format is cell-based. Particulars: 4 hr, FIGS. 1 and 2. The procedure:
Activity against these RTKs can result in antiangiogenic activity which is associated with slowed tumor growth and/or tumor regression. To measure the antiangiogenic effects of compounds of the invention, selected examples were tested in an angiogenesis assay as described below.
HUV-EC-C cells were obtained from the American Type Culture Collection (ATCC, CRL-1730), and were used at early passage for the assay. The in vitro Angiogenesis Assay Kit (Chemicon) was used according to the manufacturer's recommendation. An ice-cold mixture of ECMatrix was transferred into a precooled 96-well plate. After the matrix solution had solidified (>1 hr incubation at 37° C.), 8,000 cells were mixed with the appropriate inhibitor concentration (in 100 microliters EGM-2) and plated into each well. The clinical antiangiogenic, Sutent was used as a positive control in comparison to a compound of the invention, A13. After incubation at 37° C. for 4 hr, tube formation was inspected. Two methods, pattern recognition and branch point counting, were used to quantify the progression of angiogenesis and expressed as a percentage of the control tube count (FIGS. 1 and 2).

Test [2] concerns the target Aurora A (Homo sapiens (Human), UniProt O14965). The test can be described thus: Aurora A inhibition assay (Z-Lyte). It is filed as biochemical. Particulars: read-out: Aurora A relative inhibition percentage.
For test [3], the system named is AMPKalpha. The test can be described thus: CEREP kinase panel (HTRF). The format is biochemical, human.
Test [4] concerns the target human PLK4 (Homo sapiens (Human), UniProt O00444). Nature of the test: PLK4 inhibition assay (indirect ELISA). It is filed as biochemical. Particulars: read-out: PLK4 IC50 Ranges. Background: In an ELISA, binding on a coated surface is turned into a signal by an enzyme label.
For test [5], the target named is FLT3 (Homo sapiens (Human), UniProt P36888). Nature of the test: FLT3 inhibition assay (Z-Lyte). It is filed as biochemical. The note with it: read-out: Flt3 IC50 Ranges.

Where a name gives a salt, the structure may show the parent alone. Bounds are passed on as bounds.

Chain of UniProt O14965 (O14965 whole entry): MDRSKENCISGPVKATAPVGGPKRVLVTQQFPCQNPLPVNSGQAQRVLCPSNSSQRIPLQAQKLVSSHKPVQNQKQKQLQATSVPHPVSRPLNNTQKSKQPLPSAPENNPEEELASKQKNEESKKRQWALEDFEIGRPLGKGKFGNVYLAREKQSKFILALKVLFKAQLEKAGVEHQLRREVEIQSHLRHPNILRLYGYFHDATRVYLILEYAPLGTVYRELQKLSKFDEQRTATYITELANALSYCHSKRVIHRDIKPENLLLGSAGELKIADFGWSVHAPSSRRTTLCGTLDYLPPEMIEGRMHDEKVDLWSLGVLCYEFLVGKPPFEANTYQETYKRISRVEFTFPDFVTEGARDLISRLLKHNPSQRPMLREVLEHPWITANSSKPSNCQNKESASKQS

For the compound `O=C1Nc2ccccc2[C@]12C[C@H]2c1ccc2c(/C=C/c3ccncc3)n[nH]c2c1` (relative stereo) [Example A22, (1R*,2S*)-(E)-2-(3-(2-(pyridin-4-yl)vinyl)-1H-indazol-6-yl)spiro-[cyclo-propane-1,3′-indolin]-2′-one], the “antiangiogenic effect (tube formation)” value in test [1] is reported as “anti-agiogenic effects at submicromolar concentrations”.

In general, inhibition refers to the change of the read-out against control, counted positive when it falls. Turning to `COc1ccc2c(c1)[C@]1(C[C@H]1c1ccc3c(-c4ccc(C5CCNCC5)cc4)n[nH]c3c1)C(=O)N2` (relative stereo) [Example A122, (1R*,2S*)-5′-methoxy-2-(3-(4-(piperidin-4-yl)phenyl)-1H-indazol-6-yl)spiro[cyclopropane-1,3′-indolin]-2′-one 2,2,2-trifluoroacetate], the inhibition at 1 µM in test [2] is less than 50%. For the compound `CCc1ccc2c(c1)[C@]1(C[C@H]1c1ccc3c(/C=C/c4ccc(CN(C)C)cc4)n[nH]c3c1)C(=O)N2` (relative stereo) [Example A167, (1R*,2S*)-(E)-2-(3-(4-((dimethylamino)methyl)styryl)-1H-indazol-6-yl)-5′-ethylspiro[cyclopropane-1,3′-indolin]-2′-one 2,2,2-trifluoroacetate], the inhibition at 1 µM in test [2] was greater than 50%. In the case of `COc1ccc2c(c1)[C@]1(CC1c1ccc3c(-c4ccc(N5CCN(C)CC5)nc4)n[nH]c3c1)C(=O)N2` (single isomer, unassigned) [Example A13, (1R*, 2S*)-5′-Methoxy-2-(3-(6-(4-methylpiperazin 1-yl)pyridin-3-yl)-1H-indazol-6-yl)spiro[cyclopropane-1,3′-indolin]-2′-one], the “antiangiogenic effect (tube formation)” value in test [1] is reported as “anti-agiogenic effects at submicromolar concentrations”. Also, the “% Inhibition @ 10 uM” value in test [3] is 8%. In general, IC50 refers to the concentration that inhibits the measured activity by half. With `COc1ccc2c(c1)[C@]1(C[C@H]1c1ccc3c(-c4ccc(N5CCN(C)CC5)cc4)n[nH]c3c1)C(=O)N2` [Example A39, (1R,2S)-5′-methoxy-2-(3-(4-(4-methylpiperazin-1-yl)phenyl)-1H-indazol-6-yl)spiro[cyclopropane-1,3′-indolin]-2′-one hydrochloride], the half-maximal inhibitory concentration (IC50) in test [4] and in test [5] was less than 100 nM in each case.
